# Measurements as given in the supplement of paper PMC8728848.
# The other results are listed elsewhere or left out.
# B1: Cohesin-hLangerin (Homo sapiens) (protein)
# chain: LDDLDAVRIKVDTVNAKPGDTVRIPVRFSGIPSKGIANCDFVYSYDPNVLEIIEIEPGDIIVDPNPDKSFDTAVYPDRKIIVFLFAEDSGTGAYAITKDGVFATIVAKVKEGAPNGLSVIKFVEVGGFANNDLVEQKTQFFDGGANVGDTTEPATPTTPVTTPTTTDDLDAASYPRFMGTISDVKTNVQLLKGRVDNISTLDSEIKKNSDGMEAAGVQIQMVNESLGYVRSQFLKLKTSVEKANAQIQILTRSWEEVSTLNAQIPELKSDLEKASALNTKIRALQGSLENMSKLLKRQNDILQVVSQGWKYFKGNFYYFSLIPKTWYSAEQFCVSRNSHLTSVTSESEQEFLYKTAGGLIYWIGLTKAGMEGDWSWVDDTPFNKVQSARFWIPGEPNNAGNNEHCGNIKAPSLQAWNDAPCDKTFLFICKRPYVPSEPHHHHHH
# Legend:
# Experiment in all cases: glycan array binding signal (z-score within array); higher = stronger binding
# Settings in all cases: glycan notation: IUPAC condensed, linker removed
# [1] = molecular target: Gal(b1-3)GlcNAc(b1-6)[Gal(b1-3)]GalNAc
# Summary of the method: (§1)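 Arrays were curated from the Consortium for Functional Glycomics database, 3228 in total, and kept only where the protein sequence was available. Binding is expressed as a within-array Z-score. This score was averaged across arrays of the same protein sequence at different concentrations or buffers and across linkers, and negative values can be read as non-binding.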
# Gal(b1-3)GlcNAc6S = molecular target: Gal(b1-3)GlcNAc6S
# Summary of the method: as §1
# [2] = molecular target: Gal(b1-3)[Fuc(a1-4)]GlcNAc
# Summary of the method: as §1
# [3] = molecular target: Gal(b1-3)[Fuc(a1-4)]GlcNAc(b1-2)Man
# Summary of the method: as §1
# [4] = molecular target: Gal(b1-3)[Fuc(a1-4)]GlcNAc(b1-2)Man(a1-3)[Gal(b1-3)[Fuc(a1-4)]GlcNAc(b1-2)Man(a1-6)]Man(b1-4)GlcNAc(b1-4)[Fuc(a1-6)]GlcNAc
# Summary of the method: as §1
# [5] = molecular target: Gal(b1-3)[Fuc(a1-4)]GlcNAc(b1-3)Gal(b1-3)[Fuc(a1-4)]GlcNAc
# Summary of the method: as §1
# [6] = molecular target: Gal(b1-3)[Fuc(a1-4)]GlcNAc(b1-3)Gal(b1-4)[Fuc(a1-3)]GlcNAc
# Summary of the method: as §1
# [7] = molecular target: Gal(b1-3)[Fuc(a1-4)]GlcNAc(b1-6)GalNAc
# Summary of the method: as §1
# [8] = molecular target: Gal(b1-3)[GlcNAc(b1-6)]GalNAc
# Summary of the method: as §1
# [9] = molecular target: Gal(b1-3)[Neu5Ac(a2-6)]GalNAc
# Summary of the method: as §1
# [10] = molecular target: Gal(b1-3)[Neu5Ac(a2-6)]GlcNAc(b1-4)Gal(b1-4)Glc
# Summary of the method: as §1
# [11] = molecular target: Gal(b1-3)[Neu5Ac(b2-6)]GalNAc
# Summary of the method: as §1
# Gal(b1-4)Gal = molecular target: Gal(b1-4)Gal
# Summary of the method: as §1
# [12] = molecular target: Gal(b1-4)GalNAc(a1-3)[Fuc(a1-2)]Gal(b1-4)GlcNAc
# Summary of the method: as §1
# [13] = molecular target: Gal(b1-4)GalNAc(b1-3)[Fuc(a1-2)]Gal(b1-4)GlcNAc
# Summary of the method: as §1
# Gal(b1-4)Glc = molecular target: Gal(b1-4)Glc
# Summary of the method: as §1
# Gal(b1-4)Glc6S = molecular target: Gal(b1-4)Glc6S
# Summary of the method: as §1
# Gal(b1-4)GlcNAc = molecular target: Gal(b1-4)GlcNAc
# Summary of the method: as §1
# [14] = molecular target: Gal(b1-4)GlcNAc(a1-6)Gal(b1-4)GlcNAc
# Summary of the method: as §1
# Gal(b1-4)GlcNAc(b1-2)Man = molecular target: Gal(b1-4)GlcNAc(b1-2)Man
# Summary of the method: as §1
# [15] = molecular target: Gal(b1-4)GlcNAc(b1-2)Man(a1-3)Man(b1-4)GlcNAc(b1-4)GlcNAc
# Summary of the method: as §1
# [16] = molecular target: Gal(b1-4)GlcNAc(b1-2)Man(a1-3)[Gal(b1-4)GlcNAc(b1-2)Man(a1-6)]Man(b1-4)GlcNAc(b1-4)GlcNAc
# Summary of the method: as §1
# [17] = molecular target: Gal(b1-4)GlcNAc(b1-2)Man(a1-3)[Gal(b1-4)GlcNAc(b1-2)Man(a1-6)]Man(b1-4)GlcNAc(b1-4)[Fuc(a1-6)]GlcNAc
# Summary of the method: as §1
# [18] = molecular target: Gal(b1-4)GlcNAc(b1-2)Man(a1-3)[Gal(b1-4)GlcNAc(b1-2)Man(a1-6)][Gal(b1-4)GlcNAc(b1-4)]Man(b1-4)GlcNAc(b1-4)[Fuc(a1-6)]GlcNAc
# Summary of the method: as §1
# [19] = molecular target: Gal(b1-4)GlcNAc(b1-2)Man(a1-3)[Gal(b1-4)GlcNAc(b1-2)Man(a1-6)][GlcNAc(b1-4)]Man(b1-4)GlcNAc(b1-4)[Fuc(a1-6)]GlcNAc
# Summary of the method: as §1
# [20] = molecular target: Gal(b1-4)GlcNAc(b1-2)Man(a1-3)[GlcNAc(b1-2)Man(a1-6)]Man(b1-4)GlcNAc(b1-4)GlcNAc
# Summary of the method: as §1
# [21] = molecular target: Gal(b1-4)GlcNAc(b1-2)Man(a1-3)[GlcNAc(b1-4)][Gal(b1-4)GlcNAc(b1-2)Man(a1-6)]Man(b1-4)GlcNAc(b1-4)GlcNAc
# Summary of the method: as §1
# [22] = molecular target: Gal(b1-4)GlcNAc(b1-2)Man(a1-3)[Man(a1-6)]Man(b1-4)GlcNAc(b1-4)GlcNAc
# Summary of the method: as §1
# [23] = molecular target: Gal(b1-4)GlcNAc(b1-2)Man(a1-6)Man(b1-4)GlcNAc(b1-4)GlcNAc
# Summary of the method: as §1
# [24] = molecular target: Gal(b1-4)GlcNAc(b1-2)Man(a1-6)[GlcNAc(b1-2)Man(a1-3)]Man(b1-4)GlcNAc(b1-4)GlcNAc
# Summary of the method: as §1
# [25] = molecular target: Gal(b1-4)GlcNAc(b1-2)Man(a1-6)[Man(a1-3)]Man(b1-4)GlcNAc(b1-4)GlcNAc
# Summary of the method: as §1
# [26] = molecular target: Gal(b1-4)GlcNAc(b1-2)[Gal(b1-4)GlcNAc(b1-4)]Man(a1-3)[Gal(b1-4)GlcNAc(b1-2)Man(a1-6)]Man(b1-4)GlcNAc(b1-4)GlcNAc
# Summary of the method: as §1
# [27] = molecular target: Gal(b1-4)GlcNAc(b1-2)[Gal(b1-4)GlcNAc(b1-4)]Man(a1-3)[Gal(b1-4)GlcNAc(b1-2)[Gal(b1-4)GlcNAc(b1-6)]Man(a1-6)]Man(b1-4)GlcNAc(b1-4)GlcNAc
# Summary of the method: as §1
# [28] = molecular target: Gal(b1-4)GlcNAc(b1-2)[Gal(b1-4)GlcNAc(b1-4)]Man(a1-3)[GlcNAc(b1-4)][Gal(b1-4)GlcNAc(b1-2)Man(a1-6)]Man(b1-4)GlcNAc(b1-4)GlcNAc
# Summary of the method: as §1
# [29] = molecular target: Gal(b1-4)GlcNAc(b1-2)[Gal(b1-4)GlcNAc(b1-4)]Man(a1-3)[GlcNAc(b1-4)][Gal(b1-4)GlcNAc(b1-2)[Gal(b1-4)GlcNAc(b1-6)]Man(a1-6)]Man(b1-4)GlcNAc(b1-4)GlcNAc
# Summary of the method: as §1
# [30] = molecular target: Gal(b1-4)GlcNAc(b1-2)[Gal(b1-4)GlcNAc(b1-6)]Man(a1-6)[Gal(b1-4)GlcNAc(b1-2)Man(a1-3)]Man(b1-4)GlcNAc(b1-4)GlcNAc
# Summary of the method: as §1
# [31] = molecular target: Gal(b1-4)GlcNAc(b1-2)[Gal(b1-4)GlcNAc(b1-6)]Man(a1-6)[Gal(b1-4)GlcNAc(b1-2)Man(a1-3)]Man(b1-4)GlcNAc(b1-4)[Fuc(a1-6)]GlcNAc
# Summary of the method: as §1
# [32] = molecular target: Gal(b1-4)GlcNAc(b1-2)[Gal(b1-4)GlcNAc(b1-6)]Man(a1-6)[GlcNAc(b1-4)][Gal(b1-4)GlcNAc(b1-2)Man(a1-3)]Man(b1-4)GlcNAc(b1-4)GlcNAc
# Summary of the method: as §1
# [33] = molecular target: Gal(b1-4)GlcNAc(b1-2)[Gal(b1-4)GlcNAc(b1-6)]Man(a1-6)[GlcNAc(b1-4)][Gal(b1-4)GlcNAc(b1-2)[Gal(b1-4)GlcNAc(b1-4)]Man(a1-3)]Man(b1-4)GlcNAc(b1-4)[Fuc(a1-6)]GlcNAc
# Summary of the method: as §1
# [34] = molecular target: Gal(b1-4)GlcNAc(b1-3)Gal(b1-3)GalNAc
# Summary of the method: as §1
# [35] = molecular target: Gal(b1-4)GlcNAc(b1-3)Gal(b1-3)GlcNAc
# Summary of the method: as §1
# [36] = molecular target: Gal(b1-4)GlcNAc(b1-3)Gal(b1-4)Glc
# Summary of the method: as §1
# [37] = molecular target: Gal(b1-4)GlcNAc(b1-3)Gal(b1-4)GlcNAc
# Summary of the method: as §1
# [38] = molecular target: Gal(b1-4)GlcNAc(b1-3)Gal(b1-4)GlcNAc(b1-2)Man(a1-3)[Gal(b1-4)GlcNAc(b1-3)Gal(b1-4)GlcNAc(b1-2)Man(a1-6)]Man(b1-4)GlcNAc(b1-4)GlcNAc
# Summary of the method: as §1
# [39] = molecular target: Gal(b1-4)GlcNAc(b1-3)Gal(b1-4)GlcNAc(b1-2)Man(a1-3)[Gal(b1-4)GlcNAc(b1-3)Gal(b1-4)GlcNAc(b1-2)Man(a1-6)]Man(b1-4)GlcNAc(b1-4)[Fuc(a1-6)]GlcNAc
# Summary of the method: as §1
binder,measurement,setting,value
B1,glycan array binding signal (z-score),[1],0.253
same,glycan array binding signal (z-score),Gal(b1-3)GlcNAc6S,-0.423
same,glycan array binding signal (z-score),[2],-0.356
same,glycan array binding signal (z-score),[3],-0.41
same,glycan array binding signal (z-score),[4],3.61
same,glycan array binding signal (z-score),[5],0.139
same,glycan array binding signal (z-score),[6],-0.426
same,glycan array binding signal (z-score),[7],-0.398
same,glycan array binding signal (z-score),[8],-0.348
same,glycan array binding signal (z-score),[9],-0.433
same,glycan array binding signal (z-score),[10],-0.414
same,glycan array binding signal (z-score),[11],-0.43
same,glycan array binding signal (z-score),Gal(b1-4)Gal,-0.363
same,glycan array binding signal (z-score),[12],-0.43
same,glycan array binding signal (z-score),[13],-0.44
same,glycan array binding signal (z-score),Gal(b1-4)Glc,-0.309
same,glycan array binding signal (z-score),Gal(b1-4)Glc6S,-0.378
same,glycan array binding signal (z-score),Gal(b1-4)GlcNAc,-0.394
same,glycan array binding signal (z-score),[14],-0.392
same,glycan array binding signal (z-score),Gal(b1-4)GlcNAc(b1-2)Man,-0.088
same,glycan array binding signal (z-score),[15],-0.352
same,glycan array binding signal (z-score),[16],-0.391
same,glycan array binding signal (z-score),[17],-0.226
same,glycan array binding signal (z-score),[18],-0.453
same,glycan array binding signal (z-score),[19],-0.449
same,glycan array binding signal (z-score),[20],-0.409
same,glycan array binding signal (z-score),[21],-0.432
same,glycan array binding signal (z-score),[22],-0.298
same,glycan array binding signal (z-score),[23],-0.393
same,glycan array binding signal (z-score),[24],-0.335
same,glycan array binding signal (z-score),[25],-0.417
same,glycan array binding signal (z-score),[26],-0.449
same,glycan array binding signal (z-score),[27],-0.424
same,glycan array binding signal (z-score),[28],-0.44
same,glycan array binding signal (z-score),[29],-0.431
same,glycan array binding signal (z-score),[30],-0.436
same,glycan array binding signal (z-score),[31],-0.42
same,glycan array binding signal (z-score),[32],-0.44
same,glycan array binding signal (z-score),[33],-0.442
same,glycan array binding signal (z-score),[34],-0.4
same,glycan array binding signal (z-score),[35],-0.419
same,glycan array binding signal (z-score),[36],-0.239
same,glycan array binding signal (z-score),[37],-0.414
same,glycan array binding signal (z-score),[38],0.685
same,glycan array binding signal (z-score),[39],-0.299
